Data taken from paper PMC3419718.
These are yes or no findings as the source states them, for the method shown. Some results given as binding are weak or reduced against the parent protein; the word gives no strength.

T1: SNPN-1 (C. elegans) (UniProt O44445)
T1 sequence: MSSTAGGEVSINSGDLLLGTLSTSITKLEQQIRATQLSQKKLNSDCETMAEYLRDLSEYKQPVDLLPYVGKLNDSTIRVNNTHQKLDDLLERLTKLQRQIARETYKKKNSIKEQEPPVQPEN

T2: GLO-2.a (C. elegans) (UniProt O01822)
T2 sequence: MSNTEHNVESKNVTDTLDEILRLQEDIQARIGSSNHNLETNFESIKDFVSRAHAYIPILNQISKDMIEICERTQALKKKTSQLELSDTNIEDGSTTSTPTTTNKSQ


Experiments:
SNPN-1 (C. elegans) = target: T1, SNPN-1 (C. elegans); experiment: two-hybrid; GAL4-based, S. cerevisiae PJ69-4A; growth assay spotted on SD media lacking tryptophan, leucine and histidine (adenine added back at 0.02 mg/ml), HIS3 reporter, 4 days at 30°C
GLO-2.a (C. elegans) [1] = target: T2, GLO-2.a (C. elegans); experiment: as above
GLO-2.a (C. elegans) [2] = target: T2, GLO-2.a (C. elegans); experiment: two-hybrid; library screen: pGBKT7g-GLO-2.a bait against the Caldwell C. elegans cDNA library in pACT2.2, PJ69-4A; approximately 200,000 clones on adenine dropout media; clones recovered from yeast and retested

Row | Binder | binding (SNPN-1 (C. elegans)) | binding (GLO-2.a (C. elegans) [1]) | binding (GLO-2.a (C. elegans) [2])
1 | BLOS-1 (protein, UniProt Q22616 1-129) MLKEHSKKQHLRREVQEKLKNEAIVAAQTLSTAVVDHLNAKVAQAYGNQKRLDVEAKRFENNSAALAKQTEQWLFITEGLNYALKEIGDVENWSKTIENDMKIITETLRRAYEAKNPPLPPNQANPASH |  | binds | 
2 | BLOS-4 (protein, UniProt Q22756 1-106) MTGVDDISSNVHKLVGVTAGMNTAASTGPMNLVLDKCSVVLEELRTIQILTETHSEGLSEQLKMTEKNILEMENLFDQIDQLCLFVQKAKSDLDKLEKLYNVVDRQ |  | binds | binds

Second part, the binder after the results:

Row | binding (SNPN-1 (C. elegans)) | binding (GLO-2.a (C. elegans) [1]) | binding (GLO-2.a (C. elegans) [2]) | Binder
3 | binds | no binding |  | DSBN-1 (protein, UniProt Q9XWQ1 1-210) MDMLNTLRDTLSSVQAELSTGVEKLRMNVSANIVAQQKVSTESVNEILNTSAGNELLQNFQNLITEVEENGAEGGRLANLCSTRMGRCQQMCKEKADAVMEIDEFLRNSVEFDKKIREINAQISKLTRFCNQTEQAMTYLEALCEVAHTEGEVDLIRQQAKSAATIVQIECESPSVLTSALRSRPEDAVKAQQEEVMLEEFLSSKNMQLP
4 |  | no binding |  | SNPN-1 (protein, UniProt O44445 1-122) MSSTAGGEVSINSGDLLLGTLSTSITKLEQQIRATQLSQKKLNSDCETMAEYLRDLSEYKQPVDLLPYVGKLNDSTIRVNNTHQKLDDLLERLTKLQRQIARETYKKKNSIKEQEPPVQPEN
5 |  | binds |  | GLO-2.a (protein, UniProt O01822 1-106) MSNTEHNVESKNVTDTLDEILRLQEDIQARIGSSNHNLETNFESIKDFVSRAHAYIPILNQISKDMIEICERTQALKKKTSQLELSDTNIEDGSTTSTPTTTNKSQ
